{
  "source": "PubChem BioAssay AID463173",
  "about": "(ICCB-Longwood Screening Facility, Harvard Medical School, 2010)",
  "note": "The campaign covered roughly 52,000 compounds. About 4,300 (8.3%) were called active. No stated cut-off is given here; in the data, active means survival mostly below about 52% (no sharp cut-off); inactive means mostly above about 56%. Some of the results follow.",
  "data": [
    {"system": "DeltatarO mutant", "assay": "growth inhibition of S. aureus wild type versus tarO mutant, primary screen, teichoic acid synthesis inhibitors, RN4220, OD600 (AID 463173)", "settings": "OD600, 18 h, active compounds read low, screened at 18.75 µg/mL (by protocol)", "values": [
      {"smiles": "CCOC(=O)C1CCN(c2ncnc3c2nnn3C)CC1", "survival": "active: 37%"},
      {"smiles": "Cc1ccc(CN(C(=O)COc2cccc([N+](=O)[O-])c2)c2ccccn2)cc1", "survival": "active: 39%"},
      {"smiles": "Cc1ccc(-n2c(SCC(=O)NCc3ccc(F)cc3)nc3c([nH]c4ccccc43)c2=O)cc1", "survival": "inactive: 88%"},
      {"smiles": "CCCCNC(=O)CSc1nc2cc3c(cc2c(=O)n1CCCCCC(=O)NCc1ccc2c(c1)OCO2)OCO3", "survival": "inactive: 90%"},
      {"smiles": "COc1ccc(N(CC(=O)NCCc2ccccc2)S(=O)(=O)c2ccccc2)c(OC)c1", "survival": "inactive: 57%"},
      {"smiles": "Cc1ccc2oc3c(c(=O)c2c1)C(c1ccccc1F)N(CCCN1CCOCC1)C3=O", "note": "(stereo unspecified)", "survival": "inactive: 75%"},
      {"smiles": "COc1cc2c(cc1OC)C(COc1ccc(F)cc1)N(C(=O)Cc1ccc(F)cc1)CC2", "note": "(stereo unspecified)", "survival": "inactive: 74%"},
      {"smiles": "Cc1cc(C)cc(NC(=O)CCc2c(C)nn(-c3ccc(N4CCCC4)nn3)c2C)c1", "survival": "inactive: 74%"},
      {"smiles": "O=S(=O)(c1ccccc1)c1nc(-c2ccc(Cl)cc2Cl)oc1N1CCCCCC1", "survival": "inactive: 49%"},
      {"smiles": "COc1ccc(CNC(=O)Cn2nnc(-c3ccc(S(C)(=O)=O)cc3)n2)cc1", "survival": "inactive: 73%"},
      {"smiles": "CC(C)c1ccc(CNc2nc(-c3ccco3)nn2S(=O)(=O)c2ccc3ccccc3c2)cc1", "survival": "inactive: 106%"},
      {"smiles": "Cc1cc(C)cc(N2CCn3c2nc2c3c(=O)n(Cc3ccc(Cl)cc3)c(=O)n2C)c1", "survival": "inactive: 94%"},
      {"smiles": "CCCS(=O)(=O)c1ncc(Cl)c(C(=O)Nc2scc(-c3ccccc3)c2C(=O)OCC)n1", "survival": "active: 25%"},
      {"smiles": "C#CCN1C(=O)C(O)(CC(=O)c2ccccc2)c2ccccc21", "note": "(stereo unspecified)", "survival": "inactive: 65%"},
      {"smiles": "CCN1CCN(c2ccc(NS(=O)(=O)c3c(C)nc4sccn4c3=O)cc2Cl)CC1", "survival": "inactive: 108%"},
      {"smiles": "COc1ccc(C2NC(=O)CS2)cc1", "note": "(stereo unspecified)", "survival": "inactive: 92%"},
      {"smiles": "CCOc1ccc(-n2c(C)nc3cc(C(=O)NCCC4=CCCCC4)ccc32)cc1", "survival": "active: -4%"},
      {"smiles": "COc1ccc(CNC(=O)CCC(=O)N2CCSc3ccccc32)cc1", "survival": "inactive: 97%"},
      {"smiles": "COc1ccc(C(=O)CC2(O)C(=O)N(Cc3ccccc3Cl)c3ccccc32)cc1", "note": "(stereo unspecified)", "survival": "inactive: 62%"},
      {"smiles": "CCOC(=O)c1ccc(NC(=O)C2=C(C)Nc3nc(SCc4ccc(Cl)cc4)nn3C2c2ccc(OC)cc2)cc1", "note": "(stereo unspecified)", "survival": "inactive: 90%"},
      {"smiles": "CC1=C(C#N)C(c2cccc(Oc3ccccc3)c2)C2=C(CCCC2=O)N1", "note": "(stereo unspecified)", "survival": "inactive: 54%"},
      {"smiles": "COc1ccc(-c2nnc(SCC(=O)Nc3ccc(Cl)cc3)s2)cc1", "survival": "inactive: 84%"},
      {"smiles": "COc1cccc(-c2cc(C(=O)Nc3cc(OC)c(OC)c(OC)c3)on2)c1", "survival": "inactive: 56%"},
      {"smiles": "CCCCNC(=O)C1CCCN(S(=O)(=O)c2ccc(-n3cnnn3)cc2)C1", "note": "(stereo unspecified)", "survival": "inactive: 98%"},
      {"smiles": "COc1cccc2c1cc1c(=O)n(CC(=O)N3CCN(c4cc(Cl)ccc4C)CC3)nc(C)n12", "survival": "inactive: 74%"},
      {"smiles": "O=C(CCCn1c(=O)c2cccn2c2cccnc21)NCc1ccc(F)cc1", "survival": "inactive: 101%"},
      {"smiles": "CCC1CCCCN1CC(=O)N1CCCc2c1c(=O)oc1ccc(OCc3ccccc3)cc21", "note": "(stereo unspecified)", "survival": "active: 18%"},
      {"smiles": "CCCCSc1ncnc2c1c(-c1ccccc1)cn2-c1cccc(F)c1", "survival": "inactive: 78%"},
      {"smiles": "CCN(CC)CCNC(=O)c1ccc2c(c1)sc1nc(-c3ccc(F)cc3)cn12", "survival": "active: 29%"},
      {"smiles": "CCOC(=O)Cn1cnc2onc(-c3ccc(F)cc3)c2c1=O", "survival": "inactive: 141%"},
      {"smiles": "COc1ccc(C(CNC(=O)COc2ccc(Cl)c(C)c2)N2CCOCC2)cc1", "note": "(stereo unspecified)", "survival": "inactive: 63%"},
      {"smiles": "CC(=O)Nc1cc(NC(C)=O)cc(-c2nc3ccccc3[nH]2)c1", "survival": "inactive: 83%"},
      {"smiles": "O=C1c2ccccc2CN1c1ccccc1", "survival": "inactive: 76%"},
      {"smiles": "COc1ccc(CNC(=O)CN(c2ccccc2)S(=O)(=O)N(C)C)cc1", "survival": "inactive: 145%"},
      {"smiles": "CCOC(=O)c1cc2c(=O)n3ccccc3nc2n(CCCOC)c1=NC(=O)C(C)Oc1ccccc1", "note": "(stereo unspecified)", "survival": "active: 48%"},
      {"smiles": "CCOc1cc(CNc2ccc(O)cc2)ccc1OCc1ccc(Cl)cc1", "survival": "inactive: 53%"},
      {"smiles": "CN(C)S(=O)(=O)c1ccc(C(=O)N2CC(=O)Nc3ccc(Br)cc3C2c2ccc(F)cc2)cc1", "note": "(stereo unspecified)", "survival": "inactive: 59%"},
      {"smiles": "Cc1ccc(CNC(=O)c2ccc(Cn3c(SCc4ccccc4F)nc4cccnc43)cc2)cc1", "survival": "inactive: 80%"},
      {"smiles": "CCOc1ccc(CC(=O)NCCc2sc3nc(-c4ccc(OC)cc4)nn3c2C)cc1", "survival": "inactive: 86%"},
      {"smiles": "Cc1cc(=O)n(Cc2cccc(Cl)c2)c2c1c(C)nn2-c1ccccc1", "survival": "inactive: 81%"},
      {"smiles": "Cc1cc(C)cc(NC2=CC(c3cccc(F)c3)N(c3cc(C)cc(C)c3)C2=O)c1", "note": "(stereo unspecified)", "survival": "inactive: 87%"},
      {"smiles": "CCN(CC)C(=O)c1sc2c(c1C)c(=O)n(-c1ccccc1)c(=O)n2CC(=O)Nc1ccc(C)cc1C", "survival": "inactive: 93%"},
      {"smiles": "Cc1cccc(-n2c(=O)c3c4c(sc3n3cnnc23)CCCC4)c1", "survival": "inactive: 72%"},
      {"smiles": "CCN1CCN(c2c(S(=O)(=O)c3ccc(C)c(C)c3)cnc3cc(OC)c(OC)cc23)CC1", "survival": "inactive: 75%"},
      {"smiles": "CCc1ccc(S(=O)(=O)c2nnn3c2nc(NC2CCCCCC2)c2sccc23)cc1", "survival": "inactive: 72%"},
      {"smiles": "Cc1c(C(=O)NCc2ccccc2Br)oc2c1-c1[nH]ncc1CC2", "survival": "inactive: 64%"},
      {"smiles": "CCN1CCN(c2c(S(=O)(=O)c3ccc(OC)cc3)cnc3cc(OC)c(OC)cc23)CC1", "survival": "inactive: 79%"},
      {"smiles": "CCOC(=O)C(CC)Sc1ccc2nnc(CCNS(=O)(=O)c3ccc(C)cc3)n2n1", "note": "(stereo unspecified)", "survival": "inactive: 60%"},
      {"smiles": "COc1cccc2c1Oc1ncccc1N(C(=O)Nc1ccc(F)c(Cl)c1)C2", "survival": "inactive: 135%"},
      {"smiles": "Cc1ccc(C)c(CN2C(=O)c3ccccc3S(=O)c3ccc(C(=O)NCc4ccccc4)cc32)c1", "note": "(stereo unspecified)", "survival": "inactive: 83%"},
      {"smiles": "COc1ccccc1Cc1nc2ccccc2[nH]c1=O", "survival": "inactive: 54%"},
      {"smiles": "COc1ccc(NC(=O)c2ccc(-c3nc(CSc4ccccc4)c(C)o3)cc2)cc1OC", "survival": "inactive: 84%"},
      {"smiles": "Cc1cc(C)cc(NS(=O)(=O)c2ccc3c(c2)NC(=O)C(C)S3)c1", "note": "(stereo unspecified)", "survival": "active: 11%"},
      {"smiles": "CCOC(=O)c1c(C)oc2nc(C)nc(Nc3ccc(CC)cc3)c12", "survival": "inactive: 115%"},
      {"smiles": "CCn1c(C(=O)N2CCC(C(=O)NCCc3ccc(OC)cc3OC)CC2)cc2sccc21", "survival": "inactive: 108%"},
      {"smiles": "Cc1ccc(NCc2cc(=O)[nH]c3ccccc23)cc1", "survival": "inactive: 71%"}
    ]}
  ]
}
